Publication PMC12820563
The other results are listed elsewhere or left out. The list includes weakly bound sequences.

target: T1, MBP-FoxP3dN (UniProt Q99JB6); experiment: PD-seq (MBP pull-down with sequencing); conditions: 20 mM Tris-HCl pH 7.5, 100 mM NaCl, 1.5 mM MgCl2, 0.4 uM protein, 0.1 uM dsDNA library, 30 min, room temperature, amylose pull-down; high values mean tight binding; double strand, one strand shown
T1 sequence: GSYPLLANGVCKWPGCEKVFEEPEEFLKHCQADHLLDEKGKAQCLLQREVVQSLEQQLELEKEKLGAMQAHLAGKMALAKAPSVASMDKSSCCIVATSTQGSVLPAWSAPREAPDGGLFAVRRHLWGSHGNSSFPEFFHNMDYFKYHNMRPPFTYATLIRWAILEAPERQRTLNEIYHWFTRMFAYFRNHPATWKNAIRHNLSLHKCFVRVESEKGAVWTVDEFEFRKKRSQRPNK

**Q.** For “GATGATTGTTCTCCCAGCTGATGAATTCCCTACTTCGAGTAAACAAATTTTCCTAATCTTTCTGTTCAAGCGCCATCTAC”, which binding signal (RPM ratio (pull-down/input)) is on record?
**A.** The binding signal (RPM ratio (pull-down/input)) was 0.301.

**Q.** With “GATGATTGTTCTCCCAGCTGATGAATTGGAACGCTCGAGTAAACAAATTTTCCTAATCTTTCTGTTCAAGCGCCATCTAC” as the sequence, how does the binding signal (RPM ratio (pull-down/input)) read?
**A.** The binding signal (RPM ratio (pull-down/input)) was 0.292.

**Q.** How did the binding signal (RPM ratio (pull-down/input)) turn out when “GATGATTGTTCTCCCAGCTGATGAATTATCGATTTCGAGTAAACAAATTTTCCTAATCTTTCTGTTCAAGCGCCATCTAC” was run?
**A.** Its binding signal (RPM ratio (pull-down/input)) is 0.489.

**Q.** For “GATGATTGTTCTCCCAGCTGATGAATTGCGTGACTCGAGTAAACAAATTTTCCTAATCTTTCTGTTCAAGCGCCATCTAC”, which binding signal (RPM ratio (pull-down/input)) is on record?
**A.** Its binding signal (RPM ratio (pull-down/input)) is 1.47.

**Q.** For “GATGATTGTTCTCCCAGCTGATGAATTTGCACTTTCGAGTAAACAAATTTTCCTAATCTTTCTGTTCAAGCGCCATCTAC”, which binding signal (RPM ratio (pull-down/input)) is on record?
**A.** Its binding signal (RPM ratio (pull-down/input)) is 0.826.

**Q.** How did the binding signal (RPM ratio (pull-down/input)) turn out when “GATGATTGTTCTCCCAGCTGATGAATTGAGGAAGTCGAGTAAACAAATTTTCCTAATCTTTCTGTTCAAGCGCCATCTAC” was run?
**A.** The binding signal (RPM ratio (pull-down/input)) was 0.178.

**Q.** Which binding signal (RPM ratio (pull-down/input)) does the source give for “GATGATTGTTCTCCCAGCTGATGAATTGTGAAGATCGAGTAAACAAATTTTCCTAATCTTTCTGTTCAAGCGCCATCTAC” here?
**A.** The binding signal (RPM ratio (pull-down/input)) was 0.332.

**Q.** With “GATGATTGTTCTCCCAGCTGATGAATTCGAGCTGTCGAGTAAACAAATTTTCCTAATCTTTCTGTTCAAGCGCCATCTAC” as the sequence, how does the binding signal (RPM ratio (pull-down/input)) read?
**A.** Its binding signal (RPM ratio (pull-down/input)) is 0.325.

**Q.** Which binding signal (RPM ratio (pull-down/input)) does the source give for “GATGATTGTTCTCCCAGCTGATGAATTGTGCCGTTCGAGTAAACAAATTTTCCTAATCTTTCTGTTCAAGCGCCATCTAC” here?
**A.** Its binding signal (RPM ratio (pull-down/input)) is 2.47.

**Q.** How did the binding signal (RPM ratio (pull-down/input)) turn out when “GATGATTGTTCTCCCAGCTGATGAATTGGCACCATCGAGTAAACAAATTTTCCTAATCTTTCTGTTCAAGCGCCATCTAC” was run?
**A.** The binding signal (RPM ratio (pull-down/input)) was 0.499.

**Q.** Which binding signal (RPM ratio (pull-down/input)) does the source give for “GATGATTGTTCTCCCAGCTGATGAATTTAAGTGGTCGAGTAAACAAATTTTCCTAATCTTTCTGTTCAAGCGCCATCTAC” here?
**A.** The binding signal (RPM ratio (pull-down/input)) was 0.568.

**Q.** “GATGATTGTTCTCCCAGCTGATGAATTGTGCCAATCGAGTAAACAAATTTTCCTAATCTTTCTGTTCAAGCGCCATCTAC” was tested. Which binding signal (RPM ratio (pull-down/input)) did it give?
**A.** The binding signal (RPM ratio (pull-down/input)) was 1.1.

**Q.** Which binding signal (RPM ratio (pull-down/input)) does the source give for “GATGATTGTTCTCCCAGCTGATGAATTAATGTGGTCGAGTAAACAAATTTTCCTAATCTTTCTGTTCAAGCGCCATCTAC” here?
**A.** Its binding signal (RPM ratio (pull-down/input)) is 0.979.

**Q.** “GATGATTGTTCTCCCAGCTGATGAATTAAGATAATCGAGTAAACAAATTTTCCTAATCTTTCTGTTCAAGCGCCATCTAC” was tested. Which binding signal (RPM ratio (pull-down/input)) did it give?
**A.** Its binding signal (RPM ratio (pull-down/input)) is 0.331.

**Q.** How did the binding signal (RPM ratio (pull-down/input)) turn out when “GATGATTGTTCTCCCAGCTGATGAATTAGGTTCCTCGAGTAAACAAATTTTCCTAATCTTTCTGTTCAAGCGCCATCTAC” was run?
**A.** The binding signal (RPM ratio (pull-down/input)) was 0.873.

**Q.** With “GATGATTGTTCTCCCAGCTGATGAATTAAAACTGTCGAGTAAACAAATTTTCCTAATCTTTCTGTTCAAGCGCCATCTAC” as the sequence, how does the binding signal (RPM ratio (pull-down/input)) read?
**A.** The binding signal (RPM ratio (pull-down/input)) was 0.282.

**Q.** With “GATGATTGTTCTCCCAGCTGATGAATTAATTCCATCGAGTAAACAAATTTTCCTAATCTTTCTGTTCAAGCGCCATCTAC” as the sequence, how does the binding signal (RPM ratio (pull-down/input)) read?
**A.** The binding signal (RPM ratio (pull-down/input)) was 0.338.

**Q.** How did the binding signal (RPM ratio (pull-down/input)) turn out when “GATGATTGTTCTCCCAGCTGATGAATTTAGCGTCTCGAGTAAACAAATTTTCCTAATCTTTCTGTTCAAGCGCCATCTAC” was run?
**A.** Its binding signal (RPM ratio (pull-down/input)) is 4.15.

**Q.** For “GATGATTGTTCTCCCAGCTGATGAATTGCTCCCATCGAGTAAACAAATTTTCCTAATCTTTCTGTTCAAGCGCCATCTAC”, which binding signal (RPM ratio (pull-down/input)) is on record?
**A.** The binding signal (RPM ratio (pull-down/input)) was 0.54.

**Q.** How did the binding signal (RPM ratio (pull-down/input)) turn out when “GATGATTGTTCTCCCAGCTGATGAATTTGAGGATTCGAGTAAACAAATTTTCCTAATCTTTCTGTTCAAGCGCCATCTAC” was run?
**A.** The binding signal (RPM ratio (pull-down/input)) was 0.39.

**Q.** With “GATGATTGTTCTCCCAGCTGATGAATTAGCGTCATCGAGTAAACAAATTTTCCTAATCTTTCTGTTCAAGCGCCATCTAC” as the sequence, how does the binding signal (RPM ratio (pull-down/input)) read?
**A.** The binding signal (RPM ratio (pull-down/input)) was 1.35.

**Q.** Which binding signal (RPM ratio (pull-down/input)) does the source give for “GATGATTGTTCTCCCAGCTGATGAATTACCAAAATCGAGTAAACAAATTTTCCTAATCTTTCTGTTCAAGCGCCATCTAC” here?
**A.** The binding signal (RPM ratio (pull-down/input)) was 0.282.

**Q.** Which binding signal (RPM ratio (pull-down/input)) does the source give for “GATGATTGTTCTCCCAGCTGATGAATTTTTTAGTTCGAGTAAACAAATTTTCCTAATCTTTCTGTTCAAGCGCCATCTAC” here?
**A.** The binding signal (RPM ratio (pull-down/input)) was 0.299.

**Q.** For “GATGATTGTTCTCCCAGCTGATGAATTACCGTATTCGAGTAAACAAATTTTCCTAATCTTTCTGTTCAAGCGCCATCTAC”, which binding signal (RPM ratio (pull-down/input)) is on record?
**A.** The binding signal (RPM ratio (pull-down/input)) was 1.12.

**Q.** “GATGATTGTTCTCCCAGCTGATGAATTTGTACATTCGAGTAAACAAATTTTCCTAATCTTTCTGTTCAAGCGCCATCTAC” was tested. Which binding signal (RPM ratio (pull-down/input)) did it give?
**A.** Its binding signal (RPM ratio (pull-down/input)) is 2.32.

**Q.** How did the binding signal (RPM ratio (pull-down/input)) turn out when “GATGATTGTTCTCCCAGCTGATGAATTTATTGAATCGAGTAAACAAATTTTCCTAATCTTTCTGTTCAAGCGCCATCTAC” was run?
**A.** Its binding signal (RPM ratio (pull-down/input)) is 0.822.

**Q.** Which binding signal (RPM ratio (pull-down/input)) does the source give for “GATGATTGTTCTCCCAGCTGATGAATTCAACGTTTCGAGTAAACAAATTTTCCTAATCTTTCTGTTCAAGCGCCATCTAC” here?
**A.** Its binding signal (RPM ratio (pull-down/input)) is 0.532.

**Q.** Which binding signal (RPM ratio (pull-down/input)) does the source give for “GATGATTGTTCTCCCAGCTGATGAATTGGATTCCTCGAGTAAACAAATTTTCCTAATCTTTCTGTTCAAGCGCCATCTAC” here?
**A.** Its binding signal (RPM ratio (pull-down/input)) is 0.504.

**Q.** For “GATGATTGTTCTCCCAGCTGATGAATTTTCAGTTTCGAGTAAACAAATTTTCCTAATCTTTCTGTTCAAGCGCCATCTAC”, which binding signal (RPM ratio (pull-down/input)) is on record?
**A.** Its binding signal (RPM ratio (pull-down/input)) is 0.271.

**Q.** With “GATGATTGTTCTCCCAGCTGATGAATTCCGATATTCGAGTAAACAAATTTTCCTAATCTTTCTGTTCAAGCGCCATCTAC” as the sequence, how does the binding signal (RPM ratio (pull-down/input)) read?
**A.** The binding signal (RPM ratio (pull-down/input)) was 1.03.

**Q.** Which binding signal (RPM ratio (pull-down/input)) does the source give for “GATGATTGTTCTCCCAGCTGATGAATTTTAGCAATCGAGTAAACAAATTTTCCTAATCTTTCTGTTCAAGCGCCATCTAC” here?
**A.** The binding signal (RPM ratio (pull-down/input)) was 2.86.

**Q.** Which binding signal (RPM ratio (pull-down/input)) does the source give for “GATGATTGTTCTCCCAGCTGATGAATTGGTCCCTTCGAGTAAACAAATTTTCCTAATCTTTCTGTTCAAGCGCCATCTAC” here?
**A.** Its binding signal (RPM ratio (pull-down/input)) is 0.426.

**Q.** How did the binding signal (RPM ratio (pull-down/input)) turn out when “GATGATTGTTCTCCCAGCTGATGAATTTGCGCACTCGAGTAAACAAATTTTCCTAATCTTTCTGTTCAAGCGCCATCTAC” was run?
**A.** Its binding signal (RPM ratio (pull-down/input)) is 0.87.

**Q.** How did the binding signal (RPM ratio (pull-down/input)) turn out when “GATGATTGTTCTCCCAGCTGATGAATTCATGCTCTCGAGTAAACAAATTTTCCTAATCTTTCTGTTCAAGCGCCATCTAC” was run?
**A.** Its binding signal (RPM ratio (pull-down/input)) is 0.667.

**Q.** Which binding signal (RPM ratio (pull-down/input)) does the source give for “GATGATTGTTCTCCCAGCTGATGAATTAGCGCTCTCGAGTAAACAAATTTTCCTAATCTTTCTGTTCAAGCGCCATCTAC” here?
**A.** The binding signal (RPM ratio (pull-down/input)) was 0.516.

**Q.** For “GATGATTGTTCTCCCAGCTGATGAATTTGACCAGTCGAGTAAACAAATTTTCCTAATCTTTCTGTTCAAGCGCCATCTAC”, which binding signal (RPM ratio (pull-down/input)) is on record?
**A.** Its binding signal (RPM ratio (pull-down/input)) is 0.226.

**Q.** Which binding signal (RPM ratio (pull-down/input)) does the source give for “GATGATTGTTCTCCCAGCTGATGAATTACAATGGTCGAGTAAACAAATTTTCCTAATCTTTCTGTTCAAGCGCCATCTAC” here?
**A.** The binding signal (RPM ratio (pull-down/input)) was 0.574.

**Q.** How did the binding signal (RPM ratio (pull-down/input)) turn out when “GATGATTGTTCTCCCAGCTGATGAATTTGCTATGTCGAGTAAACAAATTTTCCTAATCTTTCTGTTCAAGCGCCATCTAC” was run?
**A.** The binding signal (RPM ratio (pull-down/input)) was 4.82.

**Q.** For “GATGATTGTTCTCCCAGCTGATGAATTTCGAGAATCGAGTAAACAAATTTTCCTAATCTTTCTGTTCAAGCGCCATCTAC”, which binding signal (RPM ratio (pull-down/input)) is on record?
**A.** The binding signal (RPM ratio (pull-down/input)) was 0.202.

**Q.** For “GATGATTGTTCTCCCAGCTGATGAATTGCGAGTATCGAGTAAACAAATTTTCCTAATCTTTCTGTTCAAGCGCCATCTAC”, which binding signal (RPM ratio (pull-down/input)) is on record?
**A.** Its binding signal (RPM ratio (pull-down/input)) is 1.17.
